# Reference: paper PMC6451091
# The other results are listed elsewhere or left out. Measured with an extract: partners may take part in the binding.
# Test system: PU.1 (endogenous, THP-1 nuclear extract) + IRF8 (endogenous, THP-1 nuclear extract)
# Test: nuclear extract protein-binding microarray (nextPBM)
# Conditions: 20 mM HEPES pH 7.9, 100 mM NaCl, 1 mM DTT, 0.2 mg/mL BSA, 0.02% Triton X-100, 2% milk, 0.4 mg/mL salmon testes DNA; 1 h; temperature not stated; high values mean tight binding; double strand, one strand shown; sequences stand for … in GCCTAGCAC…GTGCTAGGTCTTGATTCGCTTGACGCTGCTG
row,Sequence,binding signal [z-score]
1,GATCCCCAAACGGAAAGAAA,0.211
2,TCAGCCCTCGGGTGGATAGT,0.496
3,TACATTTTCTTATGCTTCCC,-0.0763
4,GTTTTTTGGCTGCTCCAGAC,-1.99
5,AGTCACCAGGGCTGGGAAGC,0.275
6,CACAACCCTCAGCAAATCTT,-0.836
7,GAAAGGACTGCGTGAAACTA,5.37
8,TGCCAGGCACACAGCAGGTC,0.322
9,TGGAGCCAAGATTTCATTGG,-0.0396
10,GGTGTGGCTGCGTGAAACCT,1.29
11,GGCCAGTCACTGTGTAAGAT,0.643
12,AAAAGGACTGCGTGAAAGTA,0.0367
13,CAGGCGAGGTGTTGGAGGAA,1.29
14,AACTAAATTAAACCACACCA,0.659
15,ATGCTATGGATTCTTTAACC,1.17
16,GAAAGACTCTGAGTCTAAGC,-1.1
17,GAGGCTGGCTGTGGCTCAAC,-0.426
18,TGGAATTGTTTTTAATCCAT,-1.13
19,ACCTCTGCTGCCTGAAACTG,2
20,AGGTAACCATACTGTCTTGA,1.85

row,Sequence,binding signal [z-score]
1,CAGTTTTTGACATCTTATCA,-0.347
2,TCCCAGGCAATCTACTCTTT,-0.0505
3,GACATTTTAGGAAAAGAGAA,0.0826
4,AGACATATTCACCACAGACT,-0.0659
5,CTCCAAAGAGCTCTGGGGGA,-0.621
6,GTGGGTTTGTCATTTGTATC,-0.979
7,GAGAGGAGAAAAGGAACGTG,-0.367
8,GCACTATAGGGTGACTATAG,0.221
9,CAACCAACTCTACCTGAGAA,0.0452
10,AAATGAACTTCAAAAAAGGA,-0.801
11,ACAATATTGTTTCTTTGAAA,0.27
12,CCTTTGTGGGAAGTCCCAGG,-1.79
13,GCGGCGGGGCTGTCAGGCTC,-0.53
14,ACTTCCCGTCCCCAGACTGG,0.729
15,CGTGTCACCCAGTACGCGGC,0.903
16,TTCGTCATTAGAACTCAGCC,-1.17
17,TTATATGAAATGTCCAGGAG,-0.494
18,TTCAGGGCTGCGTGAAAGTT,1.19
19,CCTCGAACTCACCGCCGCCC,1.57
20,TGCAGGGCTCCCTCACAGTA,0.469
